Results: article PMC6919601, “Identification of Plasmodium dipeptidyl aminopeptidase allosteric inhibitors by high throughput screening” (PLoS ONE, 2019)
Among all 110,000 compounds or so, about 230 (0.21%) showed an effect of 50% or more. The list shows a part of the results. Where a SMILES comes first, the peptide text is derived from it. The star is where a group is joined. Tos = Cc1ccc(S(=O)(=O)*)cc1

Each compound was assayed against DPAP1 (Plasmodium falciparum, UniProt Q8IIJ9) (assay: primary screen, percent inhibition; read by cleavage of a fluorogenic dipeptide substrate; higher = more effect of the substance).
Sequence of DPAP1 (Q8IIJ9 whole entry, looked up): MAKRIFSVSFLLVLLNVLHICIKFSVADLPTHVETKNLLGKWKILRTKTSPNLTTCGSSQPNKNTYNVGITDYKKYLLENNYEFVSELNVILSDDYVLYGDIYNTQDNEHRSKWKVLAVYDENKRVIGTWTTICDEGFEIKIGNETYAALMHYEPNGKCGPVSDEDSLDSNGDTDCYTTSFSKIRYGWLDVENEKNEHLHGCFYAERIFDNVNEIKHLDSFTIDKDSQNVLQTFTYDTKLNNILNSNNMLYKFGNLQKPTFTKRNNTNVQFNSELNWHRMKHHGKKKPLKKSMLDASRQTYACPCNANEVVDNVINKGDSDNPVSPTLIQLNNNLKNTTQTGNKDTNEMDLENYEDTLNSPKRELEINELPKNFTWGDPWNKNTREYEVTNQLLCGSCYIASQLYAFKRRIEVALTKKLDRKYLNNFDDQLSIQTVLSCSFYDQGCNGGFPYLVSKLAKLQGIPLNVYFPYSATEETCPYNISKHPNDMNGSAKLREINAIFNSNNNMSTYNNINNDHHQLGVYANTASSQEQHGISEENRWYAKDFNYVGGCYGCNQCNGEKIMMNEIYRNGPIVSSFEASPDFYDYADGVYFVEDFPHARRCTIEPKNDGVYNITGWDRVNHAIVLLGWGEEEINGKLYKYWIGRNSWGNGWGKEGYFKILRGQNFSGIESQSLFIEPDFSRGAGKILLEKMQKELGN
Design: species or system P. falciparum D10 trophozoite lysates; single well
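Also: 30 min substrate incubation versus DMSO and 10 µM JCP410 controls.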

Compound | % Inhibition @ 10 uM
CC(C)S(=O)(=O)c1oc(-c2cccs2)nc1S(=O)(=O)c1ccccc1 | 3.74%
CC(C)C(=O)O/N=C(\N)c1ccccn1 | 3.72%
CC1(C)CC(=O)c2sc(NS(=O)(=O)c3ccc(Cl)cc3)nc2C1 | -11.5%
O=C(COc1ccc(Cl)cc1)NCc1ccccc1 | -1.78%
CCCN(Cc1cccs1)C(=O)NC12CC3CC(CC(C3)C1)C2 | -1.08%
Clc1ccc(-c2noc(C3CCCCC3)n2)cc1 | -4.11%
O=S(=O)(Nc1ccccc1C(F)(F)F)c1ccc(F)cc1 | -10.5%
COc1ccccc1CN1CCCC(C(=O)N(C)Cc2ccccc2)C1 (stereo not drawn) | 4.84%
Cc1cc(C(=O)O)c(NC(=O)c2ccc(C(C)(C)C)cc2)s1 | -6.25%
COc1ccc(/C=C2\NC(=O)c3ccccc3C2=O)cc1 | -3.8%
Cc1nn(CC(=O)NC2CCc3ccccc32)c(=O)c2ccccc12 (stereo not drawn) | 5.43%
O=C1CSC(c2cccc(Cl)c2Cl)N1C1CCCCC1 (stereo not drawn) | 1.67%
CSc1nc2sc3c(c2c(=O)n1C)CC(C)(C)OC3 | 1.8%
COc1cccc2c1OC(C)(C)N1N=C(c3ccco3)CC21 (stereo not drawn) | 9.35%
O=C(OCCN1CCCCC1)c1ccc(O)cc1 | 2.65%
CC(C)OCCCNC(=O)C1c2ccccc2C(=O)N(C)C1c1c[nH]c2ccccc12 (stereo not drawn) | 4.07%
Oc1nc(/C=C/c2c(O)ccc3ccccc23)cc(C(F)(F)F)n1 | 15.3%
O=S(=O)(c1ccc(F)cc1)N1CCCC1 | -2.6%
CCOC(=O)c1c(C)oc(C)c1CNC(N)=O | 0.895%
CNS(=O)(=O)c1cn(CC(=O)N2CCN(C3CCCCC3)CC2)cc1S(=O)(=O)NC | -7.67%
COc1ccc(C2CC(=O)N3C(=C2C#N)SCC3(O)c2ccc(C)cc2)cc1Cn1cccn1 (stereo not drawn) | 3.24%
COc1cc(C)cc2oc(=O)c(CC(=O)NCc3ccc(C)cc3)c(C)c12 | -0.808%
CCOC(=O)N1CCN(C(=O)Cc2cn(C)c3ccccc23)CC1 | 85.9%
CCc1ccc(OCC(=O)N(Cc2ccc(OC)cc2)C2CCS(=O)(=O)C2)cc1 (stereo not drawn) | -2.98%
CCOC(=O)N1CCN(C(=O)C2CCN(Cc3nc(-c4ccccc4C)oc3C)CC2)CC1 | -6.64%

Compound | % Inhibition @ 10 uM
Oc1ccc(Cl)cc1CN1CCCCCCC1 | -3.85%
CCCc1[nH]nc2c1C(c1cc(OC)ccc1OC)C(C#N)=C(N)O2 (stereo not drawn) | 0.746%
CC(C)CCNC(=O)C1CCN(C(=O)N(C)C)CC1 | 2.05%
CCOC(=O)c1c(NC(=O)CN2CCCCCC2)sc2c1CCN(C(=O)OCC)C2 | 9.47%
Cn1cc(S(=O)(=O)N2CCOCC2)cc1C(=O)Nc1cccnc1 | -0.398%
CC1CCN(c2cnnc3c(Cl)cccc23)CC1 | 2.42%
N#CC1=C(N)Oc2[nH]nc(-c3ccc4c(c3)OCO4)c2C1c1ccc(C(F)(F)F)cc1 (stereo not drawn) | 5.55%
C=CCSC1=C(C#N)C(c2ccc(OCC)cc2)CC(=O)N1 (stereo not drawn) | -0.769%
O=C(NCc1ccccc1Cl)c1cc(=O)nc2sc(-c3cccs3)nn12 | -3.94%
O=[N+]([O-])c1ccc(Nc2ccc(O)cc2)c2nonc12 | 4.08%
COc1ccc(-n2c(S)nnc2-c2cc(C(C)(C)C)[nH]n2)cc1 | -2.91%
COc1ccc(C(=O)O/N=C(\N)CC(N)=O)cc1 | 6.07%
N#CCNC(=O)[C@H](Cc1ccsc1)NC(=O)OCc1ccccc1 | -5.21%
CSc1nn2c(=O)cc(CSc3nnc(N)s3)nc2s1 | 2.74%
O=C(O)CCC(=O)N1N=C(c2ccc(Br)cc2)CC1c1ccccc1F (stereo not drawn) | 7.97%
Cc1[nH]c2ccc(C(=O)NCCN3CCCCCC3)cc2c1C | 7.43%
CCOC(=O)c1cc2c(=O)n3ccccc3nc2n(Cc2ccco2)/c1=N/C(=O)c1ccccc1F | 5.85%
COCCN1C(=O)c2oc3ccccc3c(=O)c2C1c1ccc(O)c(OC)c1 (stereo not drawn) | 0.628%
Cc1ccc(S(=O)(=O)NC(Cc2ccccc2)C(=O)NC(CCCN=C(N)N)C(=O)O)cc1 (stereo not drawn) (Tos-Phe-Arg-OH; configuration not given here) | 2.03%
O=S(=O)(c1cc(Cl)ccc1Cl)N1CCN(c2ccccc2)CC1 | 2.46%
O=[N+]([O-])c1ccc(-c2cnc(-c3ccc(Br)cc3)nc2)cc1 | -0.351%
CCCCC(=O)Nc1cc(Cl)c(Cl)cc1NCC | -5.9%
Cc1ccc(CNC(=O)CCNS(=O)(=O)c2ccc3nc(O)ccc3c2)cc1 | 1.39%
c1ccc2c(c1)ncc1cccn12 | -0.0953%
O=C(NCCN1CCCCC1)Nc1cccc2ccccc12 | -0.292%

Compound | % Inhibition @ 10 uM
CCc1cc(-c2[nH]nc(C)c2-c2nc3ccccc3s2)c(O)cc1O | -4.58%
CCN1CCN(C(c2cccs2)C(C)NC(=O)c2cc(OC)c(OC)c(OC)c2)CC1 (stereo not drawn) | 3.96%
Cc1ccc(-c2c(C#N)c(N)nc3c2CC(C)CC3)o1 (stereo not drawn) | 3.72%
COc1ccc(-c2onc(C)c2C)cc1S(=O)(=O)N1CCN(C)CC1 | -2.25%
CCOc1ccc(Sc2cc(C(=O)NC(C)C)c3ccccc3n2)cc1 | -3.58%
O=C(NCCCN1CCCC1=O)C1CCC(CNS(=O)(=O)c2ccc(Cl)cc2)CC1 (stereo not drawn) | 3.93%
Cc1cc(C(=O)NC2CC2)c2ccccc2n1 | -0.519%
O=c1c2ccccc2cnn1CCOc1ccccc1 | -1.82%
O=C(O)CCC(=O)Nc1ccc(Oc2ccc(Cl)cc2)cc1 | -3.19%
CCOC(=O)c1cnc2c(C(=O)OC)cnn2c1O | 1.02%
CC(=O)N(CN1C(=O)c2ccccc2C1=O)c1ccc(C)c(Cl)c1 | -4.86%
COc1ccc2c(CNCCCc3ccccc3)c(C(=O)O)n(Cc3ccc(F)cc3)c2c1 | 0.16%
CCOC(=O)c1ccc(CSc2nncn2N)o1 | -1.26%
CCCN(CCC)S(=O)(=O)c1ccc(N2CCCC2=O)c(NC(=O)OC(C)C)c1 | -2.72%
CCOc1cc(C2c3c(oc4ccc(C)cc4c3=O)C(=O)N2Cc2ccc3c(c2)OCO3)ccc1O (stereo not drawn) | -5%
CSc1ccc(CCNC(=O)C2CCN(c3nn4cc(-c5ccc(C)cc5)nc4s3)CC2)cc1 | -0.878%
Cc1ccccc1CN1CCN(CC(=O)NCc2cccs2)C1=O | 2.02%
c1ccc2c(Nn3cnnc3)c3ccccc3nc2c1 | 4.61%
CCC(=O)NC1=C(C#N)C2(CCCCC2)Cc2ccccc21 | -4.64%
CN(c1ccccc1)S(=O)(=O)c1ccc(Cl)c(C(=O)Nc2cccc(C(=O)O)c2)c1 | -6.83%
C=CCOc1ccc(/C=c2\sc3nc(-c4ccc(C)cc4)nn3c2=O)cc1 | 2.17%
CC(C)(C)CC(=O)Nc1ccccc1C(N)=O | -5.31%
Brc1ccc(-c2nc(N3CCNCC3)c3ccccc3n2)cc1 | -0.63%
CC(=O)c1[nH]c(C)c(C(=O)NC2CCCCCCC2)c1C | 5.53%
Cn1c(=O)c2c(ncn2CC(=O)Nc2ccc(F)cc2F)n(C)c1=O | 2.13%

Compound | % Inhibition @ 10 uM
CC(C)CCNC(=O)C(C)n1c2ccccc2c2cnn(C)c(=O)c21 (stereo not drawn) | -2%
Cc1c(Cl)c(C(F)(F)F)nn1CC(=O)N1CCN([C@]23C[C@H]4C[C@H](C[C@H](C4)C2)C3)CC1 | -1.37%
C=C(C)[C@@H]1CC=C(CN2CCN(CC)CC2)CC1 | -1.78%
COC(=O)C1=CN(CCc2ccc(F)cc2)C=C(C(=O)OC)C1c1cccs1 | 1.81%
CCN(CC)C(=O)C(C)OC(=O)c1ccc(O)cc1 (stereo not drawn) | 2.38%
O=C(Nc1ccc(S(=O)(=O)Nc2nccs2)cc1)c1ccccc1Cl | -1.61%
CC(=O)NS(=O)(=O)c1ccc(NC(=O)c2cc(-c3ccc(C)c(C)c3)nc3ccccc23)cc1 | 9.95%
O=C(NC1CCCCC1)C1CCC(CNc2c(N3CCCC3)c(=O)c2=O)CC1 (stereo not drawn) | -2.17%
CCCCCO/C(O)=C1\C(C)=NC2=C(C(=O)CC(C)(C)C2)C1c1ccc(Cl)c(Cl)c1 (stereo not drawn) | 1.38%
O=C1c2ccc(Br)cc2C(=O)N1c1ccc(Cl)c(Cl)c1 | -3.13%
CN(C1CCCCC1)S(=O)(=O)N1CCCC(C(=O)NC2CCN(Cc3ccccc3)CC2)C1 (stereo not drawn) | -7.21%
O=C(c1ccc(C#Cc2ccccc2)o1)N1CCN(c2ccccn2)CC1 | -5.69%
O=C(c1ccc(C#CC2(O)CCCCC2)cc1)N1CCN(c2ccccc2F)CC1 | -4.93%
c1cncc(Cc2nnc(N3CCC4(CC3)OCCO4)c3ccccc23)c1 | -8.42%
COc1ccc(C(=O)NCc2nnc(SCC(=O)N3CCCCC3)o2)cc1OC | -3.39%
C=CCNC(=O)C1CC(c2cc(OC)ccc2OC)=NO1 (stereo not drawn) | 2.85%
Cc1cccc(C(=O)Nc2cccc(-c3nc4cc(Cl)ccc4o3)c2)c1 | -2%
COc1cccc(C(=O)N2Cc3ccccc3-c3ccccc3C2=O)c1 | 9.72%
O=C(C[n+]1ccccc1-c1ccccn1)c1ccc(Cl)cc1 | 3.31%
O=c1cccc2n1C[C@H]1C[C@@H]2CN(Cc2cc(F)ccc2F)C1 | 4.98%
Cc1ccc(/C=C2\CS/C(=C\c3ccc(C)o3)C2=O)o1 | 2.93%
Cc1cccc(NC(=O)CCCC(=O)Nc2cccc(C)c2C)c1C | 0.687%
Cc1cccc(-c2noc(CNC(=O)c3ccccc3F)n2)c1 | -1.22%
Cc1ccc(OCC(=O)N(Cc2ccccc2)c2ccccn2)cc1 | -4.95%
